Measurements taken from PubChem BioAssay AID485281 (National Center for Advancing Translational Sciences (NCATS), 2010).
Hit rate of the full screen: of about 350,000 compounds, about 260 (0.074%) were called active. The shares of active, inactive and inconclusive entries below differ from those in the screen. Calls come from the whole dose curve; as a rule, active = well fitted inhibition curve with a large enough effect; inconclusive = small, poorly fitted or top-dose-only effect; inactive = no such curve, though single readings can be large or run the other way. Potencies beside an inconclusive call are fits to weak or partial responses and may not hold up.

biological target: Ferritin light chain (Equus caballus) (UniProt P02791); assay: qHTS Assay for Identification of Novel General Anesthetics; details: apoferritin/1-aminoanthracene competitive binding, fluorescence; activity change, negative = displacement: at 77.5 µM (top of the series); note: nearly all actives have a fitted effect of over 20% in size
Chain of UniProt P02791 (P02791 whole entry, looked up): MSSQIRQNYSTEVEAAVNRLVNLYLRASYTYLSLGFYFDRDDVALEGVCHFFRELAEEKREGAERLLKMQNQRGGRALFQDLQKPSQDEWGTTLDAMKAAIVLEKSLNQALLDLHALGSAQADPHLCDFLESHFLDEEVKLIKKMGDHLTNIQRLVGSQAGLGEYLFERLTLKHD
Procedure, shortened: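 Apoferritin-based anesthetic binding model; compound displacement of fluorescent 1-AMA measured as endpoint fluorescence after 10 minutes at room temperature, scaled to free-ligand and complex controls.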
% is set by controls: 0 for no effect and ±100 for the full control effect; potency is the fitted concentration of half-maximal effect; tags give direction and shape of the fitted curve.

Compound | Potency | activity change, negative = displacement
COc1ccccc1CCNC(=O)C(=O)NCC1OCCN1S(=O)(=O)c1ccc(F)cc1 (stereo not drawn) | inactive | –
Cc1ccc(-c2c(C(=O)NCc3ccc(F)cc3)oc(=O)c3ccccc23)cc1 | inconclusive: 20 µM [inhibitor, partial curve] | –
COc1ccc(C(=O)C2CCCN(Cc3cccn3-c3nccs3)C2)cc1OC (stereo not drawn) | inactive | –
CCCCC(=O)Nc1cc([N+](=O)[O-])ccc1F | inconclusive: 35.5 µM [inhibitor, partial curve] | –
O=c1[nH]cnc2sc3c(c12)CCCCC3 | inconclusive: 12.6 µM [inhibitor, partial curve] | –
COc1ccccc1N1CCN(C(=O)C(=O)c2cn(CC(=O)N3CCCCCC3)c3ccccc23)CC1 | inconclusive: 31.6 µM [inhibitor, partial curve] | –
N#Cc1ccccc1Sc1ccccc1C(=O)OCc1nnc(-c2ccccc2)o1 | inconclusive: 3.55 µM [inhibitor, partial curve] | –
O=C(CN1CCC(n2nnc3cc(C(F)(F)F)ccc32)CC1)Nc1ccc2c(c1)OCCO2 | inconclusive: 39.8 µM [inhibitor, partial curve] | –
CC(C)(C)c1ccc(OC2=CS(=O)(=O)c3ccccc32)cc1 | inconclusive: 31.6 µM [inhibitor, partial curve] | –
Cc1ccc(CNC(=O)CCCN2C(=O)CCn3nc(-c4cn(C)c5ccccc45)cc32)cc1 | inactive | –
CCCc1cc2c(c(=O)o1)C(O)C1OC1C2=O (stereo not drawn) | – | inactive: -1.55% [at 15.3 µM]
COc1cc(/C=C2\C(=N)N3N=CSC3=NC2=O)ccc1OS(=O)(=O)c1ccccc1 | inconclusive: 50.1 µM [inhibitor, single point] | –
Cc1ccc(OCc2nc3ccccc3n2C)cc1 | inconclusive: 31.6 µM [inhibitor, single point] | –
CCOC(=O)c1ccc(NC(=O)c2nc(SC(C)C)ncc2Cl)cc1 | inconclusive: 20 µM [inhibitor, partial curve] | –
O=C(Cn1cnc2onc(-c3ccc(F)cc3)c2c1=O)Nc1cccc(C(F)(F)F)c1 | inactive | –
Cc1ccc(NC(=O)COn2nnc3ccc(S(=O)(=O)N(C)C)cc32)cc1F | inconclusive: 31.6 µM [inhibitor, partial curve] | –
O=C(NC(=S)Nc1ccccc1N1CCN(C(=O)c2ccccc2)CC1)c1ccccc1F | inconclusive: 35.5 µM [inhibitor, single point] | –
O=C1NN(c2ccc(Cl)c(Cl)c2)C(=O)/C1=C/c1cccc(OC(=O)c2cccs2)c1 | inconclusive: 31.6 µM [inhibitor, partial curve] | –
